Results: the supplement of paper PMC3656093
± gives the standard deviation of the averaged measurements. In all, about 1,900 compounds were measured (“CD40L-induced NF-kB luciferase activity, plate-corrected, relative to DMSO (0) and IKK inhibitor VII (-100) controls”: median about 0.032, lowest 2% from about -26 on). This is one part of the list.

The compounds below were run on BL2-NFkB-Luc (assay: CD40L-induced NF-kB luciferase activity, plate-corrected, relative to DMSO (0) and IKK inhibitor VII (-100) controls (% normalized activity); higher = more NF-kB reporter activity (less inhibition)). Conditions: 9.4 µM; stimulus: tCD40L 64 ng/ml; 4.5 h.
Experimental: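 BL2 B cells with a stable NF-kB response-element luciferase reporter (BL2-NFkB-Luc), 384-well. Cells were pre-incubated with compound at 9.4 uM for 1 h at 37 C, then stimulated with 64 ng/ml trimerized CD40L for 4.5 h; luciferase was read with Steady-Glo. Signal was normalised per plate in Genedata (median DMSO neutral control = 0, median IKK inhibitor VII at 50 uM = -100) with Assay Median plate-pattern correction; duplicate plates.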

Structure (SMILES)	CD40L-induced NF-kB luciferase activity
N=C(N)c1ccc(OCCCCCOc2ccc(C(=N)N)cc2)cc1	-3.31 ± 2.2
CC(=O)C1=C(O)C(=O)N(CC(=O)O)C1c1ccccc1Cl (stereo not given)	3.2 ± 3.2
CCCCC(=O)O[C@H]1CC[C@H]2[C@@H]3CCc4cc(O)ccc4[C@H]3CC[C@]12C	2.5 ± 0.8
COc1ccccc1C(=O)Nc1cc2cc(Br)ccc2oc1=O	9.74 ± 0.74
CCOC(=O)C(=O)Nc1ccc(Oc2ccccc2)cc1	0.906 ± 0.051
Fc1ccc(C(c2ccc(F)cc2)N2CCN(C/C=C/c3ccccc3)CC2)cc1	-3.89 ± 5.2
COc1ccc(CCN(C)CCCC(C#N)(c2ccc(OC)c(OC)c2)C(C)C)cc1OC (stereo not given)	-0.19 ± 0.34
COC(=O)CN1C(=S)N(c2ccc(F)cc2)C(=O)C1CC(=O)Nc1ccccc1 (stereo not given)	0.435 ± 0.71
CCCc1cc(=O)[nH]c(=S)[nH]1	-2.77 ± 6.7
O=C(NC1CC1)C1CCN(C2CCN(C(=O)Cc3ccc(F)cc3)CC2)CC1	-4.25 ± 1.5
Nc1cccc2nc3ccccc3cc12	349 ± 14
N/C(=N\OC(=O)c1cccc(Br)c1)c1ccncc1	2.67 ± 0.79
CC(=O)N1CCN(c2ccc(NC(=O)/C=C/c3ccccc3)cc2)CC1	3.56 ± 0.14
COc1ccc(-c2coc3c(CN4CCOCC4)c(O)ccc3c2=O)cc1	10.4 ± 3.6
CC(C)N(Cc1nccn1C)C(=O)CC1C(=O)NCCN1Cc1ccccc1C(F)(F)F (stereo not given)	0.281 ± 5.4
C[C@]12CCC(=O)C=C1CC[C@@H]1[C@@H]2[C@@H](O)C[C@@]2(C)[C@H]1CC[C@]2(O)C(=O)CO	-24.3 ± 5.5
O=C(Nc1cccc(C(=O)O)c1)/C(=C\c1ccccc1)NC(=O)c1ccccc1	1.77 ± 1.9
O=C(O)CC(O)C(=O)O (stereo not given)	1.11 ± 7.3
CNCCCC1c2ccccc2C=Cc2ccccc21	-1.95 ± 4.2
CC(C)NC[C@@H](O)c1ccc(O)c(O)c1	-0.798 ± 0.99
COC(=O)C1=CN(Cc2cccs2)C=C(C(=O)OC)C1c1cccc(Cl)c1	-5.35 ± 4.1
Cc1ccc2[nH]c3c(=O)n(CCc4cnc[nH]4)cnc3c2c1	20.4 ± 3.4
CC(=O)[C@H]1CC[C@H]2[C@@H]3CCC4=CC(=O)CC[C@]4(C)[C@H]3CC[C@]12C	-8.04 ± 6
CO[C@@H]1O[C@@H]2COC(c3ccccc3)O[C@@H]2[C@@H](OC)[C@@H]1O (stereo not given in full)	2.35 ± 0.73

Structure (SMILES)	CD40L-induced NF-kB luciferase activity
CC(=O)N1CCN(c2ccc(OC[C@H]3CO[C@](Cn4ccnc4)(c4ccc(Cl)cc4Cl)O3)cc2)CC1	-8.34 ± 2.5
COc1ccc(S(N)(=O)=O)cc1C(N)=O	-2.45 ± 4.3
O=C(NCc1ccco1)/C(=C\C=C\c1ccccc1)NC(=O)c1ccccc1Br	1.36 ± 2.9
CN(C)CCOC(c1ccccc1)c1ccccc1	0.0566 ± 0.086
CN1CCc2cccc3c2[C@@H]1Cc1ccc(O)c(O)c1-3	13.7 ± 1.1
CN1C2CCC1CC(OC(c1ccccc1)c1ccccc1)C2 (stereo not given)	-2.73 ± 1.3
CSCCC1NC2(C(=O)Nc3ccc(Cl)cc32)[C@@H]2C(=O)N(C3CCCC3)C(=O)[C@H]12 (stereo not given in full)	5.07 ± 2.4
COc1ccc(C2NC(C(=O)O)Cc3c2[nH]c2ccccc32)cc1CN1CCN(c2ccc(F)cc2)CC1 (stereo not given)	-1.86 ± 2.1
CCCN(CCC)S(=O)(=O)c1ccc(C(=O)O)cc1	-9.88 ± 2.7
COc1cccc(OC)c1C(=O)Nc1nc2ccc([N+](=O)[O-])cc2s1	3.34 ± 5.3
C[C@]12CC[C@@H]3c4ccc(O)cc4CC[C@H]3[C@@H]1CC[C@@H]2O	-1.7 ± 2.8
CC(NC(=O)OCc1ccccc1)C(=O)N1CC(O)CC1C(=O)O (stereo not given)	2.65 ± 0.093
Cn1c(=O)oc2cc(S(=O)(=O)N3CCc4ccccc4C3)ccc21	2.87 ± 1.3
Clc1ccc(CSC(Cn2ccnc2)c2ccc(Cl)cc2Cl)cc1 (stereo not given)	1.98 ± 3.8
CC(NC(=O)c1ccc(N2CCNCC2)c([N+](=O)[O-])c1)C12CC3CC(CC(C3)C1)C2 (stereo not given)	4.61 ± 5.2
CC1(C)C(=O)OC(c2cccs2)C2(CCCCC2)C1=O (stereo not given)	-2.53 ± 2.6
CN(C)CCN(Cc1ccccc1)c1ccccn1	-4.72 ± 1
COc1cccc2c(=O)c3ccccc3oc12	58 ± 9.2
C=CCN1C(=O)c2oc3ccccc3c(=O)c2C1c1ccc(O)c(OC)c1 (stereo not given)	-0.791 ± 0.32
O=c1cnn([C@@H]2O[C@H](CO)[C@@H](O)[C@H]2O)c(=O)[nH]1	10.5 ± 4.8
COc1ccc(CC(=O)N2CC3(C)CC2CC(C)(C)C3)cc1OC (stereo not given)	0.646 ± 2.2
CC1=CC(C)(C)N2C(=O)C3(NCCc4c3[nH]c3ccccc43)c3cc(C)cc1c32 (stereo not given)	1.81 ± 1.6
O=C(/C=C/c1ccco1)NCc1ccc2c(c1)OCO2	-1 ± 5.2
O=C(Nc1ccc(Cl)cn1)Nc1ccccc1Cl	38.1 ± 2.5

Structure (SMILES)	CD40L-induced NF-kB luciferase activity
O=C(O)/C=C/c1ccc(O)c(O)c1	-4.83 ± 0.88
O=C(/C=C/c1ccco1)N1CCN(c2ccccc2)CC1	6.71 ± 0.18
COc1cc2c(cc1OC)C(=S)NC(C)(C)C2	-9.01 ± 2.9
COc1ccc(C2NC(=O)c3ccccc3N2)cc1OC (stereo not given)	37.3 ± 2.5
CN1C(=O)C(O)(CC(=O)c2ccccc2O)c2cc(Br)ccc21 (stereo not given)	2.73 ± 4.5
CC(=O)OC[C@H]1O[C@@H](n2ncc(=O)[nH]c2=O)[C@H](OC(C)=O)[C@@H]1OC(C)=O	-0.15 ± 22
Fc1ccc(NC(=S)Nc2ccccc2Cl)cc1	3.06 ± 3.4
O=C(O)C1Sc2[nH]c(=O)sc2C2c3ccc(O)cc3OC(=O)C12 (stereo not given)	-3.23 ± 3.2
NS(=O)(=O)c1ccc(CNC(=O)c2cc(-c3ccccc3)nc3ccccc23)cc1	-6.99 ± 3.5
COc1ccc(C(=O)Oc2ccc3c(C)cc(=O)oc3c2C(C)=O)cc1	19 ± 11
COc1cc(OC)c(C2C(C#N)=C(N)OC3=C2C(=O)CC(C)(C)C3)cc1OC (stereo not given)	-6.09 ± 9.2
COc1cc(C(=O)NCCCCCC(=O)O)cc(OC)c1OC	0.0588 ± 0.9
COCCOC(=O)c1c(C)oc2ccc(OCc3cc(C(=O)OC)oc3C)cc12	-1.8 ± 0.73
O=C1C(=O)c2ccccc2C(O)=C1c1ccccc1F	-1.75 ± 1.4
COc1ccc(CCNc2ncnc3c2[nH]c2cc(OC)c(OC)cc23)cc1OC	0.0735 ± 2.6
Cc1cc(=O)oc2cc(OC(C)C(=O)NCC3CCCO3)ccc12 (stereo not given)	-1.24 ± 1.4
CCCCCC#CCC#CCC#CCC#CCCCC(=O)O	1.01 ± 0.55
CCN(Cc1cnn(C)c1)Cc1nc(C(c2ccccc2)c2ccccc2)no1	-0.986 ± 2.9
Cc1ccc(CN2CCN(CCCc3ccccc3)CC2CCO)cc1 (stereo not given)	0.826 ± 1.2
O=C(Nc1ccccc1)c1ccccc1CCc1ccccc1	-5.88 ± 6.5
CC1=C(/C=C/C(C)=C/C=C/C(C)=C/C(=O)O)C(C)(C)CCC1	-1.84 ± 3.9
Cc1[nH]c2ccccc2c1/C=C/c1nc2ccccc2c(=O)n1CCO	2.11 ± 2.5
